# Assay results from publication PMC4336329 (PLoS ONE, 2015).
# In all, about 310,000 compounds went through this assay and about 14,000 (4.5%) showed an effect of 50% or more. The effect is printed as a negative number. The list shows a part of the results.
# Biological target: human ether-à-go-go-related gene (hERG) potassium channel (human, UniProt Q12809)
# Experiment: primary screen, population patch clamp on CHO cells stably expressing hERG
# 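Also: peak tail current of the secondary pulse compared with the same well before compound.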
# Sequence of human ether-à-go-go-related gene (hERG) potassium channel (Q12809 whole entry, looked up): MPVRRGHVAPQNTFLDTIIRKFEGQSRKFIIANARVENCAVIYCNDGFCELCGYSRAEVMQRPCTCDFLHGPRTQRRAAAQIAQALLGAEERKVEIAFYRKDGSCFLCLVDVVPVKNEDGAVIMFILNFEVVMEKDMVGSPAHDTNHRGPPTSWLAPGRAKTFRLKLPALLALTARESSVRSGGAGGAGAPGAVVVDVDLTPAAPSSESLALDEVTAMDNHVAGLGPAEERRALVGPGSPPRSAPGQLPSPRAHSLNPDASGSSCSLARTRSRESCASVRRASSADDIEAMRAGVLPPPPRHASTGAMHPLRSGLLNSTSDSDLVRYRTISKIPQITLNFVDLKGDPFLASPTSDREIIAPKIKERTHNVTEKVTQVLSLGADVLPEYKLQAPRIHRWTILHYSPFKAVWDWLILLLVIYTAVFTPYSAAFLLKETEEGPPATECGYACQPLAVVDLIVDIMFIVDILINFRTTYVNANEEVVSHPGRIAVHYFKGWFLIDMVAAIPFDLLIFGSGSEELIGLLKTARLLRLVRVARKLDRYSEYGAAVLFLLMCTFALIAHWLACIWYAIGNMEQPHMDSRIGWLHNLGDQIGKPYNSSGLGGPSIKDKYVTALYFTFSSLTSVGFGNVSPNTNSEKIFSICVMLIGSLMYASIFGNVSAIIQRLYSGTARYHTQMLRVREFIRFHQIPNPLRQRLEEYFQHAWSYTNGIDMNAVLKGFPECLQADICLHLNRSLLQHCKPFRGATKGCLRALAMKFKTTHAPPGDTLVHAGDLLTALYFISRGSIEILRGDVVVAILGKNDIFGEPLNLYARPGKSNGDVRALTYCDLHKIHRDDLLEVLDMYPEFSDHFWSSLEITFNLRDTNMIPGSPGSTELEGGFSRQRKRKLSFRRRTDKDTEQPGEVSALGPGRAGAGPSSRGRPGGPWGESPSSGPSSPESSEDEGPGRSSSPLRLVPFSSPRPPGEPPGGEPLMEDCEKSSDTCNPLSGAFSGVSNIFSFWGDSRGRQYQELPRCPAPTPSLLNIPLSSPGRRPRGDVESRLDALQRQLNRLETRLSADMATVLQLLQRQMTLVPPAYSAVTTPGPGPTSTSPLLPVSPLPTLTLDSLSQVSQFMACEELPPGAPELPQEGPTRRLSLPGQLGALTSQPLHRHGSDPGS
row,SMILES,"hERG current change (%, negative = inhibition) at 10uM"
1,CCn1c(=O)c2c(nc3n2CCCN3CCc2ccccc2)n(C)c1=O,-21.2%
2,COc1ccc2c(=O)c3ccccc3oc2c1,-1.23%
3,NNS(=O)(=O)c1ccc(N2CCCC2=O)c([N+](=O)[O-])c1,21.8%
4,CCOC(=O)C1=CCC2c3c(c4ccccc4n3C)C(=O)C1N2C(=O)OC(C)(C)C (stereo not drawn),9.47%
5,O=C(O)c1cc(Cl)ccc1NC(=O)C1CCCO1 (stereo not drawn),0.306%
6,Cc1c(NC(=O)C(C)N2C(=O)c3ccccc3C2=O)c(=O)n(-c2ccccc2)n1C (stereo not drawn),12.8%
7,COc1cc(S(=O)(=O)N2CCN(c3ccccc3)CC2)ccc1F,20.5%
8,COc1ccc(Cc2nnc(NC(=O)c3cccc([N+](=O)[O-])c3C)s2)cc1,0.56%
9,O=c1[nH]c(N2CCN(c3ccccc3)CC2)nc2c1CCC2,1.59%
10,O=C(NCc1ccccn1)c1ccco1,14.8%
11,COC(=O)c1sc(N2CCN(Cc3ccccc3)CC2)nc1N,11.7%
12,O=C(O)c1nnn(-c2cccc(C(F)(F)F)c2)c1-c1ccccc1,13.6%
13,Cc1ccc(NC(=O)CCc2nnc3ccc(N4CCC5(CC4)OCCO5)nn23)nc1,4.15%
14,O=C(Nc1ccc(C(=O)O)cc1)/C(=C/c1ccc2c(c1)OCO2)NC(=O)c1cccc(Br)c1,7.25%
15,CC(=O)N1CCN(C(=O)c2cccc(NS(=O)(=O)c3ccc(Br)cc3)c2)CC1,1.69%
16,COc1nc(NCC(C)C)nc(Oc2ccc(OCc3ccccc3)nn2)n1,-26.5%
17,Cc1ccc(NS(=O)(=O)c2ccc(/C=C/C(=O)O)cc2)cc1Cl,9.88%
18,COc1ccc(NC(C)=O)cc1NC(=O)CN1CCN(C2c3ccccc3-c3ccccc32)CC1,3.55%
19,O=C(NCCc1ccccc1)C1CCCN(c2nc3ccccc3s2)C1 (stereo not drawn),4.09%
20,Cc1ccnc(NC(=O)C(C)N2C(=O)c3ccccc3S2(=O)=O)c1 (stereo not drawn),6.37%
21,CC1(C)C2CCC(C2)C1(C)NC(=O)CN1CCN(Cc2ccccc2)CC1.Cl (stereo not drawn),7.77%
22,Cn1c(=O)[nH]c(=O)c2c1nc(SCCO)n2CCCc1ccccc1,-4.68%
23,COc1cc2nc(SCC(=O)NCCc3ccccc3)n(Cc3ccco3)c(=O)c2cc1OC,-43.3%
24,O=C(Cc1cccc(C(F)(F)F)c1)Nc1cc(S(=O)(=O)N2CCOCC2)ccc1N1CCCC1,-25.5%
